Assay results reported in a collection of fitness landscapes (doi:10.1126/science.1257360).
This is one part of the list.

B1: PhoQ; a variant is named by its letters at X, in order, P23837 (parent)
chain: MKKLLRLFFPLSLRVRFLLATAAVVLVLSLAYGMVALIGYSVSFDKTTFRLLRGESNLFYTLAKWENNKLHVELPENIDKQSPTMTLIYDENGQLLWAQRDVPWLMKMIQPDWLKSNGFHEIEADVNDTSLLLSGDHSIQQQLQEVREDDDDAEMTHSVAVNVYPATSRMPKLTIVVVDTIPVELKSSYMVWSWFIYVLSANLLLVIPLLWVAAWWSLRPIEALAKEVRELEEHNRELLNPATTRELTSLVRNLNRLLKSERERYDKYRTTLTDLTHSLKTPLXXLQXXLRSLRSEKMSVSDAEPVMLEQISRISQQIGYYLHRASMRGGTLLSRELHPVAPLLDNLTSALNKVYQRKGVNISLDISPEISFVGEQNDFVEVMGNVLDNACKYCLEFVEISARQTDEHLYIVVEDDGPGIPLSKREVIFDRGQRVDTLRPGQGVGLAVAREITEQYEGKIVAGESMLGGARMEVIFGRQHSAPKDE

Variants of: B1
Assay: enrichment ratio after two sorts for PhoP signalling (ratio (wild type AVST 3.29)); higher = more functional
Conditions: with PhoP (E. coli)

Row | Variant | enrichment ratio
1 | TPSM | ≤ 0.25
2 | YSRS | ≤ 0.25
3 | NHCV | ≤ 0.25
4 | NSFW | ≤ 0.25
5 | GFKQ | ≤ 0.25
6 | NYCA | ≤ 0.25
7 | KDNS | ≤ 0.25
8 | DMYS | ≤ 0.25
9 | DLCT | ≤ 0.25
10 | QQYE | ≤ 0.25
11 | HRDA | ≤ 0.25
12 | PKNK | ≤ 0.25
13 | FVTC | ≤ 0.25
14 | IMAN | ≤ 0.25
15 | ISPD | ≤ 0.25
16 | RGCP | ≤ 0.25
17 | IHTD | ≤ 0.25
18 | KIFS | ≤ 0.25
19 | IHCV | ≤ 0.25
20 | AEKP | ≤ 0.25
21 | EYVN | ≤ 0.25
22 | NGDI | ≤ 0.25
23 | RVKI | ≤ 0.25
24 | GLSI | 11
25 | LTKH | ≤ 0.25
26 | HEHT | ≤ 0.25

Row | Variant | enrichment ratio
27 | SMAL | 8.61
28 | SREY | ≤ 0.25
29 | SQHL | ≤ 0.25
30 | VKMK | ≤ 0.25
31 | WKAM | ≤ 0.25
32 | RVFI | ≤ 0.25
33 | FFNM | ≤ 0.25
34 | LEWQ | ≤ 0.25
35 | LFPY | ≤ 0.25
36 | RLMP | ≤ 0.25
37 | GYVG | ≤ 0.25
38 | SWEP | ≤ 0.25
39 | GQWM | ≤ 0.25
40 | KKYS | ≤ 0.25
41 | MFPK | ≤ 0.25
42 | VRSN | ≤ 0.25
43 | ECKC | ≤ 0.25
44 | VKSW | ≤ 0.25
45 | RGDT | ≤ 0.25
46 | MEHF | ≤ 0.25
47 | IEMR | ≤ 0.25
48 | MKWL | 4.42
49 | ESIA | ≤ 0.25
50 | QVLD | ≤ 0.25
51 | NWHR | ≤ 0.25
52 | QSCC | ≤ 0.25

Row | Variant | enrichment ratio
53 | KFKW | ≤ 0.25
54 | WCQK | ≤ 0.25
55 | RRKC | ≤ 0.25
56 | RDSK | ≤ 0.25
57 | PCIR | ≤ 0.25
58 | VYAQ | ≤ 0.25
59 | KYFY | ≤ 0.25
60 | MLHQ | ≤ 0.25
61 | YSHF | ≤ 0.25
62 | WASP | ≤ 0.25
63 | PAKC | ≤ 0.25
64 | DDNA | ≤ 0.25
65 | TGNK | ≤ 0.25
66 | HQEM | ≤ 0.25
67 | INNN | ≤ 0.25
68 | RNDQ | ≤ 0.25
69 | EHKC | ≤ 0.25
70 | VDSK | ≤ 0.25
71 | MGQK | ≤ 0.25
72 | SSTW | ≤ 0.25
73 | VMMS | ≤ 0.25
74 | PSDD | ≤ 0.25
75 | PEGT | ≤ 0.25
76 | MDVF | ≤ 0.25
77 | CQVY | 5.8
78 | VKFA | ≤ 0.25

Row | Variant | enrichment ratio
79 | SKIM | 20.9
80 | DKCQ | ≤ 0.25
81 | NCFS | ≤ 0.25
82 | WLYQ | ≤ 0.25
83 | SSMI | 19
84 | SLPD | ≤ 0.25
85 | GWHK | ≤ 0.25
86 | QQLP | ≤ 0.25
87 | KAHK | ≤ 0.25
88 | TEFH | 12.1
89 | DRAE | ≤ 0.25
90 | WMPG | ≤ 0.25
91 | RLTI | ≤ 0.25
92 | AIPN | ≤ 0.25
93 | IIAS | ≤ 0.25
94 | IYLQ | ≤ 0.25
95 | YENM | ≤ 0.25
96 | MYSK | 0.585
97 | DMNG | ≤ 0.25
98 | SNMY | 6.32
99 | MAWN | 23.5
100 | IIQF | ≤ 0.25
101 | DIIP | ≤ 0.25
102 | KYVG | ≤ 0.25
103 | LIST | ≤ 0.25
104 | ICEH | ≤ 0.25

Row | Variant | enrichment ratio
105 | QLYN | ≤ 0.25
106 | WSDT | ≤ 0.25
107 | HDSC | ≤ 0.25
108 | LLGF | ≤ 0.25
109 | IWDT | ≤ 0.25
110 | GFPN | ≤ 0.25
111 | EFFD | ≤ 0.25
112 | DFSR | 0.643
113 | SFRK | ≤ 0.25
114 | RPSS | ≤ 0.25
115 | TCKH | ≤ 0.25
116 | NKSD | ≤ 0.25
117 | SLVL | 1.22
118 | FYYH | ≤ 0.25
119 | SFMV | ≤ 0.25
120 | DVTQ | ≤ 0.25
121 | WNIS | ≤ 0.25
122 | ANND | ≤ 0.25
123 | TCLG | 0.681
124 | IPTW | ≤ 0.25
125 | PWWF | ≤ 0.25
126 | ELFA | ≤ 0.25
127 | AVYI | ≤ 0.25
128 | NYLK | ≤ 0.25
129 | AKCN | 5.46
130 | GPAL | ≤ 0.25

Row | Variant | enrichment ratio
131 | PFLH | ≤ 0.25
132 | SKKF | ≤ 0.25
133 | FIQG | ≤ 0.25
134 | ANYL | 0.346
135 | ESFT | ≤ 0.25
136 | VCDR | ≤ 0.25
137 | KPSW | ≤ 0.25
138 | EIVH | ≤ 0.25
139 | TDLC | 11.7
140 | GQSK | ≤ 0.25
141 | MFMV | ≤ 0.25
142 | VHFE | ≤ 0.25
143 | ACEP | ≤ 0.25
144 | AVMI | 15.6
145 | WVPA | ≤ 0.25
146 | LNWK | ≤ 0.25
147 | FRHH | ≤ 0.25
148 | LCCP | ≤ 0.25
149 | KDIM | ≤ 0.25
150 | NHQK | ≤ 0.25
151 | YLPW | ≤ 0.25
152 | PFWF | ≤ 0.25
153 | AFNT | ≤ 0.25
